# Experimental data published in PubChem BioAssay (NCI).
#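 48-hour exposure; five concentrations; linearly interpolated endpoints. GI50: concentration for 50% inhibition of growth. The concentration for full growth arrest is given as TGI.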
# Test system: NCI-H322M lung
# Assay: NCI-60 cell line screen, 48 h
SMILES,TGI,GI50
CCO/C=N/NC(=O)CSc1nc2ccc(I)cc2c(=O)n1Cc1ccccc1,> 100 µM,
Cc1ccc(-c2nc3ccc([N+](=O)[O-])cc3[nH]2)cc1,> 100 µM,
COc1ccccc1N1CCN(CCCn2c(=O)c3c(OC)nc(C)cc3c(=O)n2-c2ccccc2)CC1,> 100 µM,> 100 µM
NS(=O)(=O)c1ccc(N(/C=C/C(=O)C(F)(F)F)CC(=O)c2ccc(Cl)cc2)cc1,> 100 µM,34.3 µM
Cn1cc(C2=C(c3cn(C)c4cc(C(N)=O)ccc34)C(=O)NC2=O)c2ccccc21,24.2 µM,1.53 µM
O=C1c2ccccc2C2(O)c3cc4ccccc4cc3OC12O (stereo unspecified),> 100 µM,
O=C(NS(=O)(=O)OCC(Cl)(Cl)Cl)SCCC(F)(F)C(F)(F)C(F)(F)C(F)(F)C(F)(F)C(F)(F)F,37.3 µM,
CCN1CCN=c2c3cc(OC)ccc3n3cnc4ccc1c2c43,0.839 µM,
Ic1ccc(-n2nnnc2-c2cnoc2-c2ccccc2)cc1,> 83.6 µM,> 50.4 µM
Cn1cnc([N+](=O)[O-])c1S(=O)(=O)Oc1ccccc1,> 100 µM,> 74.4 µM
Cc1cn(CCCCCOC(=O)NC(CCCN=C(N)N)C(=O)O)c(=O)[nH]c1=O (stereo unspecified),> 100 µM,
CC[C@]1(Cc2ccc(OC)c(OC)c2)[C@@H]2C[C@@H](C3OCCO3)ON2O[C@H](OC2CCCC2(c2ccccc2)c2ccccc2)[C@@H]1OC(C)=O (stereo partly specified),> 100 µM,
CC1(C)OCCn2c1nc1c(N3CCOCC3)nc(-c3cnc(N)nc3)nc12,> 24.4 µM,0.326 µM
CCOC(=O)NC(=O)c1cn(CCOC(=O)NCCCCCCNC(=O)OCCn2cc(C(=O)NC(=O)OCC)c(=O)[nH]c2=O)c(=O)[nH]c1=O,> 100 µM,
C=CCc1cccc(/C=N/NC(=O)CN2CCN(Cc3ccccc3)CC2)c1O,14.2 µM,1.37 µM
O=C1/C(=C/c2ccccc2)NC(=S)N1CN1CCOCC1,> 100 µM,
CC(C)C1=C(Cc2ccccc2)C(=O)O/C1=C\c1cc(Cl)c(O)c(Cl)c1,33.1 µM,
CCN(CC)CCOc1ccc(/C=C2\CC3C4CC=C5C[C@@H](O)CC[C@]5(C)C4CC[C@]3(C)C2=O)cc1OC (stereo partly specified),19.2 µM,6.55 µM
Cc1ccc(/C=C/c2c(C(=O)/C=C/c3ccc(C(F)(F)F)cc3)c(C)nc3ccccc23)cc1,2.81 µM,1.48 µM
C[C@H]1Oc2cc(cnc2N)-c2c(nn(C)c2C#N)CN(C)C(=O)c2ccc(F)cc21,> 100 µM,33.2 µM
CC(C)(C)c1cc(C(CO)OCCOCCO)cc(C(C)(C)C)c1O (stereo unspecified),> 100 µM,
O=C(O)CSc1n[nH]c(-c2ccccc2)n1,> 100 µM,

SMILES,TGI,GI50
CN1CCN(CN2C(=O)C3C4C=CC(C3C2=O)C2C(=O)N(CN3CCN(C)CC3)C(=O)C42)CC1 (stereo unspecified),> 100 µM,
COc1ccc(C(OC(C)=O)C2C(=C(C#N)C#N)c3ccccc3C2=C(C#N)C#N)cc1 (stereo unspecified),> 100 µM,
O=c1cc2oc3cc(O)c(O)cc3c(-c3ccccc3O)c-2cc1O,> 100 µM,11.6 µM
CC(C)=CCc1cc(O)cc2c1OC(C=C(C)C)C1=C2C(=O)C2=C(NCCS2(=O)=O)C1=O (stereo unspecified),3.02 µM,0.829 µM
COc1cc(CNCCCN2C(=O)c3ccc4c5c(ccc(c35)C2=O)C(=O)N(CCCNCc2cc(OC)c(OC)c(OC)c2)C4=O)cc(OC)c1OC,1.54 µM,0.404 µM
O=P(O)(Cc1ccccc1)c1ccccc1-c1ccccc1,> 100 µM,
CCc1nc2ccc(N=NN(C)C)cc2[nH]1,> 100 µM,
COc1ccncc1C#Cc1cncc(C(=O)Nc2ccc(CN3CCN(C)CC3)c(C(F)(F)F)c2)c1,> 100 µM,27.9 µM
CCN(CC)c1nc(-c2ccc(Cl)cc2Cl)nc2ccccc12,75.6 µM,18.7 µM
COc1ccc2oc(-c3cccnc3)cc(=O)c2c1,> 100 µM,
O=c1[nH]cc(COCCO)c(=O)[nH]1,> 100 µM,
O=[N+]([O-])c1ccc(S(=O)(=O)N=Ic2ccccc2)cc1,> 100 µM,
O=S(=O)(O)c1ccc(N=Nc2ccc(N=Nc3c(O)ccc4ccccc34)cc2)cc1,> 100 µM,
C=CCCCCCCCCCCC1(O)C=CC2=[N+](CCCCCN=C(N)N)CCCN21 (stereo unspecified),28.1 µM,11.9 µM
Cc1cn2c(/C=C3\C(=O)Nc4ccc(O)cc43)c(-c3ccc(Cl)cc3)nc2s1,94 µM,26.6 µM
COc1c(OC)c(OC)c(C(=O)/C=C/c2ccccc2)c(OC)c1OC,20.9 µM,
COC1C(O)=C2C(=O)O/C(C)=C/C=C/C=C/C=C\CC(c3ccccc3)NC(=O)\C=C/C=C\C=C\C=C\[C@@]2(C)[C@@H]1O (stereo partly specified),0.396 µM,
O=C(CC(=O)c1ccccc1)CC(O)(c1ccccc1)c1ccccc1,27.7 µM,
CSc1ncnc2c1cnn2CCCCO,> 100 µM,
COc1ccc(/C(=N\NC(=O)C(N)=O)C(c2ccc(OC)cc2)C2(O)C(=O)Nc3c(Cl)cccc32)cc1 (stereo unspecified),> 100 µM,
Cn1c(N)c2c3c(sc2nc1=O)CCCC3,> 75 µM,
O=C1NC(=S)NNC12c1ccccc1-c1ccccc12,> 10 µM,
